From PubChem BioAssay AID686978 (National Center for Advancing Translational Sciences (NCATS), 2013)
Values joined by “and” are separate entries in the source; they are usually repeats but may differ in a detail not shown here. Identical values can stand only once. In all, about 420,000 compounds went through this assay and about 64,000 (15%) were called active. Inconclusive means that the source gave no clear call. Such entries were picked first, then a sample of the others. Calls follow the shape of the dose curve; as a rule, active = well fitted inhibition curve with a large enough effect; inconclusive = small, poorly fitted or top-dose-only effect; inactive = flat fitted curve, though single readings scatter. Potencies of inconclusive entries are left out as doubtful fits.

Test: qHTS for Inhibitors of human tyrosyl-DNA phosphodiesterase 1 (TDP1): qHTS in cells in absence of CPT; also: nearly all actives have a fitted effect of over 55% in size
Conditions: DT40 Tdp1-/- hTDP1 cells, no CPT, ATP luminescence, 48 h; activity change, negative = growth inhibition: at 46.2 µM (top of the series) unless noted
How it was run: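 Luminescent ATP content (CellTiter-Glo) served as the growth readout. Knockout chicken DT40 cells expressing human TDP1 were exposed to compounds without camptothecin for a minimum 48 hr at 37 °C.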
% is scaled to controls: 0 for no effect and ±100 for the full control effect; potency is read from the fitted curve at half-maximal effect; tags tell the direction and shape of the fitted curve.

Compound	Potency	activity change, negative = growth inhibition
COc1cc(/C=N/NC(=O)c2cc(-c3ccc4c(c3)OCO4)n[nH]2)ccc1O	inconclusive [inhibitor, single point]	–
COc1cccc(NC(=O)NNC(=O)c2ccc3c(c2)NC(=O)C(C)(C)O3)c1	inactive	–
CCOC(=O)c1cc2c(c(-c3ccccc3)n1)[C@@H](CCO)N(S(=O)(=O)C(C)(C)C)C2	inactive	–
Cc1oc2ccc(O)c(CN3CCCC(C)C3)c2c1C(=O)Nc1ccccc1 (stereo not given)	active: 16.4 µM	–
Cc1ccc(-c2nc3cc(C)c(Br)c(C)n3c2Cc2cccc(F)c2)cc1	active: 10.3 µM	–
CC(C)OCCCn1c(=O)c2ccccc2n2c(-c3ccccc3F)nnc12	inconclusive [inhibitor, single point]	–
Cc1ccc(CNC(=O)C(C)n2c(=O)cc(-c3ccccc3)c3c(C)nn(C)c32)cc1 (stereo not given)	inconclusive [inhibitor, single point]	–
Cc1cc([N+](=O)[O-])nn1CCCC(=O)Nc1sc2c(c1C(N)=O)CCCC2	active: 18.4 µM	–
COc1ccc2cc(CN(CC3CCCO3)C(=O)Nc3ccccc3)c(=O)[nH]c2c1 (stereo not given)	inactive	–
COCCN(CCOC)Cc1cc(=O)oc2cc(C)c(C)cc12	inconclusive [inhibitor, single point]	–
COc1ccc([C@H]2CC(=O)C=C(c3ccc(Cl)cc3C)C2)cc1	inconclusive [inhibitor, single point]	–
Cc1ccc(-c2nnn(CC(=O)N3c4ccccc4CCc4ccccc43)n2)cc1	inconclusive [inhibitor, partial curve]	–
COc1ccc(NC(=O)N2CCCC2C(=O)NC23CC4CC(CC(C4)C2)C3)cc1 (stereo not given)	inconclusive [inhibitor, single point]	–
COc1ccc(C(=O)Nc2ccccc2N2CCOCC2)cc1[N+](=O)[O-]	inconclusive [inhibitor, partial curve, poor fit]	–
Cc1ccc(C)c(NC(=O)CN(C)C(=O)c2cc([N+](=O)[O-])ccc2N2CCOCC2)c1	inactive	–
COc1cccc(/C=C/C(=O)OCC(=O)N2CCCc3ccccc32)c1	inactive	–
COc1ccc(OC)c(CN2CCCC(c3nc(C)ncc3-c3ccc(F)cc3)C2)c1 (stereo not given)	inconclusive [inhibitor, partial curve]	–
CC1CCCN(c2nc(-c3cccnc3)nc3scc(-c4ccccc4)c23)C1 (stereo not given)	active: 18.4 µM	–
COc1ccc(Br)cc1CNC(=O)Cn1ncn2nc(-c3cccs3)cc2c1=O	active: 13 µM	–
Cc1oc(-c2ccccc2Cl)nc1CSc1nncn2c1cc1occc12	inconclusive [inhibitor, single point]	–
COc1ccc(C(=O)N/C(=C\c2ccccc2)C(=O)N2CCOCC2)cc1	inactive	–
CC(C)(C)c1ccc(C(=O)NC(=S)NCc2ccco2)cc1	inconclusive [inhibitor, single point]	–
O=C(CN(C1CC1)S(=O)(=O)c1ccc(S(=O)(=O)NC2CCCCC2)cc1)Nc1ccccc1	inconclusive [inhibitor, single point]	–

Compound	Potency	activity change, negative = growth inhibition
Cc1ccc(SC2=C(Sc3ccc(C)cc3)C(=O)c3ccccc3C2=O)cc1	active: 1.03 µM	–
CCOC(=O)c1c(C)[nH]c(C(=O)NCCc2ccc(OC)c(OC)c2)c1C	active: 14.6 µM	–
COc1ccccc1N1CCN(C(=O)c2ccc3c(c2)CCN3S(=O)(=O)c2ccccc2)CC1	active: 10.3 µM and active: 2.91 µM	–
COc1ccc(-n2c(=O)c(-c3ccc(Cl)cc3)nc3cnc(N4CCNCC4)nc32)cc1	active: 11.6 µM	–
O=C(Nc1ccccc1)OCCNC(=O)c1cccc(Cl)c1	inconclusive [inhibitor, single point]	–
CCN(CC)CC(=O)Nc1sc2c(c1C(=O)c1ccccc1OC)CCC2	active: 14.6 µM	–
Cc1ccc(-c2nnn3c2nc(NCc2ccc4c(c2)OCO4)c2ccccc23)cc1	inconclusive [inhibitor, single point]	–
C=CCn1c(-c2cccc([N+](=O)[O-])c2)n[nH]c1=S	inactive	–
C=CCOc1cccc(C(=O)N(C)C2CCCN(Cc3ccccc3F)C2)c1 (stereo not given)	inconclusive [inhibitor, single point]	–
Cc1cnc(SCc2ccccn2)nc1C1CCCN(C(=O)c2cc3ccccc3oc2=O)C1 (stereo not given)	active: 20.6 µM	–
FC(F)(F)c1ccc(/C=N/n2c(C3CCCCC3)n[nH]c2=S)cc1	inconclusive [inhibitor, single point]	–
COc1ccc(C(CNC(=O)c2cc(C)oc2C)N2CCOCC2)cc1 (stereo not given)	inconclusive [inhibitor, single point]	–
Cc1ccc(N2CCN(c3cc(C)nc4nc(C)nn34)CC2)c(C)c1	inconclusive [inhibitor, single point]	–
CN(C)S(=O)(=O)c1ccc(Cl)c(C(=O)NCCNC(=O)c2cc(S(=O)(=O)N(C)C)ccc2Cl)c1	–	inconclusive: -33.9% [inhibitor]
CN(C)Cc1cn(CC[C@@H]2CC[C@@H](NC(=O)Nc3ccccc3F)[C@@H](CO)O2)nn1	inactive	–
Cc1ncc(CSc2nccc(=O)[nH]2)c(CO)c1O	inactive	–
Cc1noc(C)c1COC(=O)c1ccc(-c2nc3ccccc3s2)s1	inconclusive [inhibitor, partial curve, poor fit]	–
CCC(=O)N1CCc2cc(S(=O)(=O)NC(CC(C)C)C(=O)N3CCc4ccccc43)ccc21 (stereo not given)	inconclusive [inhibitor, single point]	–
O=C(Nc1ccccc1N1CCOCC1)c1cccc2c(Br)cccc12	active: 18.4 µM	–
CSc1nc2ccc(S(=O)(=O)N3CCc4ccccc43)cc2s1	active: 23.1 µM	–
C/C(=N\NC(=O)c1ccccc1)c1ccc2c(c1)OCO2	inactive	–
CN(Cc1nc(-c2cccnc2)no1)S(=O)(=O)c1ccc(Br)cc1	inconclusive [inhibitor, partial curve]	–
